Test results reported in the supplement of paper PMC8728848.
The other results are listed elsewhere or left out.

How the values were obtained:
Experiment in all cases: glycan array binding signal (z-score within array); higher = stronger binding
Conditions in all cases: glycan notation: IUPAC condensed, linker removed
[1] = biological target: Fuc(a1-2)Gal
Summary of the method: (§1)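 Glycan array binding is given as a within-array Z-score, which can be read as non-binding when negative. The arrays, 3228 of them, came from the Consortium for Functional Glycomics database and were retained only where the protein sequence was available. Z-scores were averaged across arrays of the same protein sequence at different concentrations or buffers and across linkers.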

[2] = biological target: Fuc(a1-2)Gal(b1-3)GalNAc
Summary of the method: as §1

[3] = biological target: Fuc(a1-2)Gal(b1-3)GalNAc(b1-3)Gal
Summary of the method: as §1

[4] = biological target: Fuc(a1-2)Gal(b1-3)GalNAc(b1-3)Gal(a1-4)Gal(b1-4)Glc
Summary of the method: as §1

[5] = biological target: Fuc(a1-2)Gal(b1-3)GalNAc(b1-3)Gal(b1-4)Glc
Summary of the method: as §1

[6] = biological target: Fuc(a1-2)Gal(b1-3)GalNAc(b1-4)[Neu5Ac(a2-3)]Gal(b1-4)Glc
Summary of the method: as §1

[7] = biological target: Fuc(a1-2)Gal(b1-3)GlcNAc
Summary of the method: as §1

[8] = biological target: Fuc(a1-2)Gal(b1-3)GlcNAc(b1-3)Gal(b1-4)Glc
Summary of the method: as §1

[9] = biological target: Fuc(a1-2)Gal(b1-3)[Fuc(a1-4)]GlcNAc
Summary of the method: as §1

[10] = biological target: Fuc(a1-2)Gal(b1-4)Glc
Summary of the method: as §1

[11] = biological target: Fuc(a1-2)Gal(b1-4)Glc6S
Summary of the method: as §1

[12] = biological target: Fuc(a1-2)Gal(b1-4)GlcNAc
Summary of the method: as §1

[13] = biological target: Fuc(a1-2)Gal(b1-4)GlcNAc(b1-3)Gal(b1-4)GlcNAc
Summary of the method: as §1

[14] = biological target: Fuc(a1-2)Gal(b1-4)GlcNAc(b1-3)Gal(b1-4)GlcNAc(b1-3)Gal(b1-4)GlcNAc
Summary of the method: as §1

[15] = biological target: Fuc(a1-2)Gal(b1-4)GlcNAc6S
Summary of the method: as §1

[16] = biological target: Fuc(a1-2)Gal(b1-4)[Fuc(a1-3)]GalNAc(b1-3)Gal(b1-4)[Fuc(a1-3)]GlcNAc
Summary of the method: as §1

[17] = biological target: Fuc(a1-2)Gal(b1-4)[Fuc(a1-3)]GalNAc(b1-3)Gal(b1-4)[Fuc(a1-3)]GlcNAc(b1-3)Gal(b1-4)[Fuc(a1-3)]GalNAc
Summary of the method: as §1

[18] = biological target: Fuc(a1-2)Gal(b1-4)[Fuc(a1-3)]GlcNAc
Summary of the method: as §1

[19] = biological target: Fuc(a1-2)Gal(b1-4)[Fuc(a1-3)]GlcNAc(b1-3)Gal(b1-4)[Fuc(a1-3)]GlcNAc
Summary of the method: as §1

[20] = biological target: Fuc(a1-2)Gal(b1-4)[Fuc(a1-3)]GlcNAc(b1-3)Gal(b1-4)[Fuc(a1-3)]GlcNAc(b1-3)Gal(b1-4)[Fuc(a1-3)]GlcNAc
Summary of the method: as §1

[21] = biological target: Fuc(a1-2)Gal6S(b1-4)Glc
Summary of the method: as §1

[22] = biological target: Fuc(a1-2)Gal6S(b1-4)Glc6S
Summary of the method: as §1

[23] = biological target: Fuc(a1-2)Gal6S(b1-4)GlcNAc
Summary of the method: as §1

[24] = biological target: Fuc(a1-2)GlcNAc
Summary of the method: as §1

[25] = biological target: Fuc(a1-2)[Gal(a1-3)]Gal
Summary of the method: as §1

[26] = biological target: Fuc(a1-2)[Gal(a1-3)]Gal(b1-3)GlcNAc
Summary of the method: as §1

[27] = biological target: Fuc(a1-2)[Gal(a1-3)]Gal(b1-4)Glc
Summary of the method: as §1

[28] = biological target: Fuc(a1-2)[Gal(a1-3)]Gal(b1-4)GlcNAc
Summary of the method: as §1

[29] = biological target: Fuc(a1-2)[Gal(a1-3)]Gal(b1-4)[Fuc(a1-3)]GlcNAc
Summary of the method: as §1

[30] = biological target: Fuc(a1-2)[Gal(a1-4)]Gal(b1-4)GalNAc
Summary of the method: as §1

[31] = biological target: Fuc(a1-2)[Gal(a1-4)]Gal(b1-4)GlcNAc
Summary of the method: as §1

[32] = biological target: Fuc(a1-2)[GalNAc(a1-3)]Gal
Summary of the method: as §1

[33] = biological target: Fuc(a1-2)[GalNAc(a1-3)]Gal(b1-3)GlcNAc
Summary of the method: as §1

[34] = biological target: Fuc(a1-2)[GalNAc(a1-3)]Gal(b1-4)Glc
Summary of the method: as §1

[35] = biological target: Fuc(a1-2)[GalNAc(a1-3)]Gal(b1-4)GlcNAc
Summary of the method: as §1

[36] = biological target: Fuc(a1-2)[GalNAc(a1-3)]Gal(b1-4)[Fuc(a1-3)]GlcNAc
Summary of the method: as §1

[37] = biological target: Fuc(a1-2)[GalNAc(a1-4)]Gal(b1-4)GlcNAc
Summary of the method: as §1

[38] = biological target: Fuc(a1-2)[GalNAc(b1-3)]Gal
Summary of the method: as §1

[39] = biological target: Fuc(a1-3)GlcNAc
Summary of the method: as §1

[40] = biological target: Fuc(a1-3)[Gal(b1-4)]Glc6S
Summary of the method: as §1

[41] = biological target: Fuc(a1-3)[Gal(b1-4)]GlcNAc
Summary of the method: as §1

[42] = biological target: Fuc(a1-3)[Gal(b1-4)]GlcNAc(b1-2)Man(a1-3)[Fuc(a1-3)[Gal(b1-4)]GlcNAc(b1-2)Man(a1-6)]Man(b1-4)GlcNAc(b1-4)GlcNAc
Summary of the method: as §1

[43] = biological target: Fuc(a1-3)[Gal(b1-4)]GlcNAc(b1-2)Man(a1-6)[Gal(b1-4)GlcNAc(b1-2)Man(a1-3)]Man(b1-4)GlcNAc(b1-4)GlcNAc
Summary of the method: as §1

[44] = biological target: Fuc(a1-3)[Gal(b1-4)]GlcNAc(b1-3)Gal(b1-3)[Fuc(a1-4)]GlcNAc
Summary of the method: as §1

[45] = biological target: Fuc(a1-3)[Gal(b1-4)]GlcNAc(b1-4)Gal(b1-4)[Fuc(a1-3)]GlcNAc
Summary of the method: as §1

[46] = biological target: Fuc(a1-3)[Gal(b1-4)]GlcNAc(b1-4)Gal(b1-4)[Fuc(a1-3)]GlcNAc(b1-4)Gal(b1-4)[Fuc(a1-3)]GlcNAc
Summary of the method: as §1

[47] = biological target: Fuc(a1-3)[Gal(b1-4)]GlcNAc6S
Summary of the method: as §1

[48] = biological target: Fuc(a1-3)[Gal3S(b1-4)]Glc
Summary of the method: as §1

[49] = biological target: Fuc(a1-3)[Gal3S(b1-4)]Glc6S
Summary of the method: as §1

[50] = biological target: Fuc(a1-3)[Gal3S(b1-4)]GlcNAc
Summary of the method: as §1

[51] = biological target: Fuc(a1-3)[Gal3S(b1-4)]GlcNAc6S
Summary of the method: as §1

[52] = biological target: Fuc(a1-3)[GalNAc(b1-4)]Gal(b1-4)GlcNAc
Summary of the method: as §1

[53] = biological target: Fuc(a1-3)[GalNAc(b1-4)]GlcNAc
Summary of the method: as §1

[54] = biological target: Fuc(a1-4)GlcNAc
Summary of the method: as §1

[55] = biological target: Fuc(b1-3)GlcNAc
Summary of the method: as §1

[56] = biological target: Gal(a1-2)Gal
Summary of the method: as §1

[57] = biological target: Gal(a1-3)Gal
Summary of the method: as §1

[58] = biological target: Gal(a1-3)Gal(b1-3)Glc
Summary of the method: as §1

[59] = biological target: Gal(a1-3)Gal(b1-3)GlcNAc
Summary of the method: as §1

[60] = biological target: Gal(a1-3)Gal(b1-4)Glc
Summary of the method: as §1

[61] = biological target: Gal(a1-3)Gal(b1-4)GlcNAc
Summary of the method: as §1

[62] = biological target: Gal(a1-3)Gal(b1-4)[Fuc(a1-3)]GalNAc
Summary of the method: as §1

[63] = biological target: Gal(a1-3)Gal(b1-4)[Fuc(a1-3)]GlcNAc
Summary of the method: as §1

[64] = biological target: Gal(a1-3)GalNAc
Summary of the method: as §1

[65] = biological target: Gal(a1-3)GlcNAc
Summary of the method: as §1

[66] = biological target: Gal(a1-3)[Gal(a1-4)]Gal(b1-4)GlcNAc
Summary of the method: as §1

[67] = biological target: Gal(a1-4)Gal(b1-4)Gal
Summary of the method: as §1

[68] = biological target: Gal(a1-4)Gal(b1-4)GalNAc
Summary of the method: as §1

[69] = biological target: Gal(a1-4)Gal(b1-4)Glc
Summary of the method: as §1

[70] = biological target: Gal(a1-4)Gal(b1-4)GlcNAc
Summary of the method: as §1

[71] = biological target: Gal(a1-4)GlcNAc
Summary of the method: as §1

[72] = biological target: Gal(a1-6)Glc
Summary of the method: as §1

[73] = biological target: Gal(b1-2)Gal
Summary of the method: as §1

[74] = biological target: Gal(b1-3)Gal
Summary of the method: as §1

[75] = biological target: Gal(b1-3)Gal(b1-4)GlcNAc
Summary of the method: as §1

B1: NcCVNHO (Neurospora crassa), Q7S6U4 (protein)
chain: MSFHVTAEDARIEVRDNRTILFARLRREDGEWNDASYELDQIIGNNDGHFQWGGQNFTETAEDIRFHPKEGAAEQPILRARLRDCNGEFHDRDVNLTEIVENVNGEFQAKF
glycan array binding signal (z-score) [1]: -0.209
glycan array binding signal (z-score) [2]: -0.18
glycan array binding signal (z-score) [3]: -0.219
glycan array binding signal (z-score) [4]: -0.178
glycan array binding signal (z-score) [5]: -0.132
glycan array binding signal (z-score) [6]: -0.232
glycan array binding signal (z-score) [7]: -0.261
glycan array binding signal (z-score) [8]: 5.47
glycan array binding signal (z-score) [9]: -0.232
glycan array binding signal (z-score) [10]: -0.212
glycan array binding signal (z-score) [11]: -0.176
glycan array binding signal (z-score) [12]: -0.211
glycan array binding signal (z-score) [13]: -0.236
glycan array binding signal (z-score) [14]: -0.19
glycan array binding signal (z-score) [15]: -0.179
glycan array binding signal (z-score) [16]: -0.154
glycan array binding signal (z-score) [17]: -0.12
glycan array binding signal (z-score) [18]: -0.231
glycan array binding signal (z-score) [19]: -0.256
glycan array binding signal (z-score) [20]: -0.096
glycan array binding signal (z-score) [21]: -0.151
glycan array binding signal (z-score) [22]: -0.177
glycan array binding signal (z-score) [23]: -0.185
glycan array binding signal (z-score) [24]: -0.227
glycan array binding signal (z-score) [25]: -0.18
glycan array binding signal (z-score) [26]: -0.226
glycan array binding signal (z-score) [27]: -0.229
glycan array binding signal (z-score) [28]: -0.226
glycan array binding signal (z-score) [29]: -0.193
glycan array binding signal (z-score) [30]: -0.124
glycan array binding signal (z-score) [31]: -0.258
glycan array binding signal (z-score) [32]: -0.204
glycan array binding signal (z-score) [33]: -0.208
glycan array binding signal (z-score) [34]: -0.218
glycan array binding signal (z-score) [35]: -0.232
glycan array binding signal (z-score) [36]: -0.212
glycan array binding signal (z-score) [37]: -0.206
glycan array binding signal (z-score) [38]: -0.236
glycan array binding signal (z-score) [39]: -0.136
glycan array binding signal (z-score) [40]: -0.15
glycan array binding signal (z-score) [41]: -0.207
glycan array binding signal (z-score) [42]: -0.194
glycan array binding signal (z-score) [43]: -0.185
glycan array binding signal (z-score) [44]: -0.169
glycan array binding signal (z-score) [45]: -0.175
glycan array binding signal (z-score) [46]: -0.212
glycan array binding signal (z-score) [47]: -0.178
glycan array binding signal (z-score) [48]: -0.146
glycan array binding signal (z-score) [49]: -0.15
glycan array binding signal (z-score) [50]: -0.189
glycan array binding signal (z-score) [51]: -0.172
glycan array binding signal (z-score) [52]: -0.152
glycan array binding signal (z-score) [53]: -0.254
glycan array binding signal (z-score) [54]: -0.238
glycan array binding signal (z-score) [55]: -0.209
glycan array binding signal (z-score) [56]: -0.225
glycan array binding signal (z-score) [57]: -0.218
glycan array binding signal (z-score) [58]: 0.103
glycan array binding signal (z-score) [59]: -0.23
glycan array binding signal (z-score) [60]: -0.256
glycan array binding signal (z-score) [61]: -0.21
glycan array binding signal (z-score) [62]: -0.114
glycan array binding signal (z-score) [63]: -0.266
glycan array binding signal (z-score) [64]: -0.225
glycan array binding signal (z-score) [65]: -0.116
glycan array binding signal (z-score) [66]: -0.219
glycan array binding signal (z-score) [67]: -0.168
glycan array binding signal (z-score) [68]: -0.143
glycan array binding signal (z-score) [69]: 0.495
glycan array binding signal (z-score) [70]: 0.191
glycan array binding signal (z-score) [71]: -0.196
glycan array binding signal (z-score) [72]: 1.97
glycan array binding signal (z-score) [73]: -0.217
glycan array binding signal (z-score) [74]: -0.202
glycan array binding signal (z-score) [75]: -0.149
